Test results: PubChem BioAssay AID687022 (Broad Institute, 2013)
Screen size: about 1,000 compounds; about 360 (36%) were called active.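 Rule for the calls: active = Fitted curve of melting temperature shift crosses the 1.0 threshold at or below the sample's highest valid tested concentration; inconclusive = Flat fit with activity 30 to 70, or invalid fit; inactive = Opposite direction, flat within 30, or no crossing.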 This part holds few or none of the hits.

The molecules below were run against Fibroblast growth factor 22 (Homo sapiens) (UniProt Q9HCT0) (assay: binders of human FGF22 protein, dose response, FGF22 synaptogenesis inhibitor project, biophysical, thermal shift, cherry-pick (AID 687022; note: reference of the scale not given here)). Settings: recombinant FGF22 thermal shift, SYPRO orange melting; at 38 µM (top of the series) unless noted.
UniProt Q9HCT0, sequence (Q9HCT0 whole entry, looked up): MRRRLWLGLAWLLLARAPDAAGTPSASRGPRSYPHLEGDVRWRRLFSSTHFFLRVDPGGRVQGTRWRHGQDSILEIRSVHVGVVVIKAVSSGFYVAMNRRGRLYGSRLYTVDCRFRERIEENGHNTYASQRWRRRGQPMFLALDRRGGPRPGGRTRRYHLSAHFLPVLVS

| SMILES | Tm shift activity |
| --- | --- |
| CN1C(=O)NC(NS(=O)(=O)c2ccc(N)cc2)(C(F)(F)F)C1=O (centres undefined) | inactive: -0.004% |
| O=C(c1ccccn1)N1C[C@H]2[C@@H](c3ccccc31)[C@@H](CO)N2C(=O)c1ccccn1 | inactive: 0.048% [at 42 µM] |
| CCCCNC(=O)C1(C)CCCCN1C(=O)c1c(F)ccc(C)c1F (centres undefined) | inactive: -0.15% |
| O=C(c1cccc(F)c1)N1C[C@@H]2[C@H](c3ccccc31)[C@H](CO)N2C(=O)C1CCCCC1 | inactive: -0.034% [at 42 µM] |
| CC(C)CC#Cc1cnc2c(c1)C(=O)N([C@@H](C)CO)C[C@H](C)[C@@H](CN(C)Cc1ccccn1)O2 | inactive: 0.044% |
| Cc1ccc(NC(=O)c2ccc(S(=O)(=O)NCc3cccnc3)cc2)c(C)c1 | inactive: -0.175% |
| CC1(c2ccc3ccccc3c2)NC(=O)N(CC(=O)Nc2ncccc2O)C1=O (centres undefined) | inactive: -0.237% |
| O=C(C[C@H]1CC[C@@H](NC(=O)Nc2cc(F)ccc2F)[C@@H](CO)O1)Nc1ccc(-c2ccccc2)cc1 | inactive: 0.124% [at 42 µM] |
| Cc1ccc(NC(=O)COC(=O)Cn2cnc3c2c(=O)n(C)c(=O)n3C)cc1F | inactive: -1.53% |
| CC(=O)N1[C@@H](CO)[C@@H]2c3ccccc3N(C(=O)c3ccc(F)cc3)C[C@@H]21 | inactive: -0.181% |
| Cc1ccc(N(C(=O)c2csnn2)C(C(=O)NC2CCCC2)c2ccccn2)c(C)c1 (centres undefined) | inactive: 0.564% |
| C[C@H](CO)N1C[C@H](C)[C@H](CN(C)CC2CCCCC2)Oc2c(NC(=O)Nc3ccc4c(c3)OCO4)cccc2C1=O | inactive: -0.569% |
| C[C@H](NC(=O)C[C@@H]1CC[C@@H]2[C@H](COC[C@@H](O)CN2C(=O)Nc2cccc(Cl)c2)O1)c1ccccc1 | inactive: 1.03% |
| CN1/C(=C\C(=O)c2cccc([N+](=O)[O-])c2)Sc2ccccc21 | inactive: -0.16% |
| Cc1ccccc1-c1ccccc1[C@@H]1[C@@H](C#N)N(C(=O)c2ccccc2)[C@H]1CO | inactive: -0.262% |
| CN1C(=O)c2cc(NC(=O)c3ccccc3Cl)ccc2OC[C@@H]2O[C@@H](CC(=O)NCC(F)(F)F)CC[C@H]21 | inactive: 0.085% |
| CS(=O)(=O)N1CCCCN2[C@H](CO)[C@H](c3ccc(C#Cc4ccccn4)cc3)[C@@H]2C1 | inactive: 0.054% [at 42 µM] |
| O=C(c1ccc2c(c1)OCO2)N1CC(=O)N2[C@@H](CO)[C@H](c3ccc(C#CCC4CCCC4)cc3)[C@@H]2C1 | inactive: 0.181% |
| CC(=O)Nc1cc(-c2ccccc2Cl)cn2c(-c3ccc(S(C)(=O)=O)cc3)cnc12 | inactive: -0.375% |
| O=C(O/N=C1\CCCc2ccccc21)C1CC1 | inactive: -0.196% |
| C[C@@H]1CN([C@H](C)CO)C(=O)c2cc(NC(=O)Cc3cn(C)c4ccccc34)ccc2O[C@@H]1CN(C)S(=O)(=O)c1ccccc1 | inactive: 0.402% |
| Cc1ccccc1C(=O)NCC(=O)OC(C)C(=O)Nc1cccc(S(=O)(=O)N2CCOCC2)c1 (centres undefined) | inactive: -2.68% |

| SMILES | Tm shift activity |
| --- | --- |
| COC(=O)C[C@@H]1CC[C@H]2[C@@H](COc3ccc(NC(=O)NC(C)C)cc3C(=O)N2C)O1 | inactive: 0.058% |
| COc1ccc(CN(C)C[C@@H]2Oc3ccc(NC(=O)NC(C)C)cc3C(=O)N([C@H](C)CO)C[C@@H]2C)cc1 | inactive: 0% [at 42 µM] |
| CC(C)NC(=O)Nc1ccc2c(c1)C(=O)N([C@H](C)CO)C[C@H](C)[C@@H](CN(C)C(=O)NC(C)C)O2 | inactive: 0.003% |
| CCCC(=O)Nc1ccc(C(=O)Nc2ccc([N+](=O)[O-])cc2OC)cc1 | inactive: 0.142% |
| C[C@H](CO)N1C[C@H](C)[C@@H](CN(C)C(=O)OCc2ccccc2)OCc2cn(nn2)CCCC1=O | inactive: 0.212% |
| O=C(NCC[C@H]1CC[C@@H](NC(=O)C2CCOCC2)[C@@H](CO)O1)Nc1ccc(Cl)cc1 | inactive: 0.267% [at 42 µM] |
| CNC[C@H]1OCCCC[C@@H](C)Oc2ccc(NC(=O)Nc3ccc(C(F)(F)F)cc3)cc2C(=O)N([C@H](C)CO)C[C@@H]1C | inactive: -0.635% [at 42 µM] |
| COc1ccc(NC(=O)N(C)C[C@@H]2Oc3ccc(NS(C)(=O)=O)cc3CC(=O)N([C@@H](C)CO)C[C@H]2C)cc1 | inactive: -0.142% [at 42 µM] |
| O=C(c1ccccc1)N1CC(=O)N2[C@H](C1)[C@@H](c1ccc(C#CC3CC3)cc1)[C@@H]2CO | inactive: -0.399% [at 42 µM] |
| CCc1ccc(C(=O)NNC(=O)c2cccc(N3C(=O)CCC3=O)c2)cc1 | inactive: 0.024% |
| O=C(O)CCN(Cc1ccccc1)S(=O)(=O)c1ccccc1Cl | inactive: -0.042% |
| O=C(C1CC1)N1CC2(C1)[C@H](c1ccccc1)[C@@H](CO)N2Cc1ccc(Cl)cc1 | inactive: -0.221% [at 42 µM] |
| COCC(=O)N1CC(=O)N2[C@H](CO)[C@H](c3ccc(Br)cc3)[C@H]2C1 | inactive: -0.099% |
| O=C(C[C@H]1CC[C@@H]2[C@H](COC[C@H](O)CN2Cc2cc(F)ccc2F)O1)NCc1ccc(F)cc1 | inactive: -0.438% [at 42 µM] |
| CCc1ccc(C(=O)NCc2cnn(C)c2)s1 | inactive: -0.042% |
| O=C(CC1CC1)N1CC2(C1)[C@H](c1ccccc1)[C@H](CO)N2C(=O)c1cnccn1 | inactive: -0.016% [at 42 µM] |
| Oc1c(CN2CCOCC2)cc(CN2CCOCC2)c(O)c1O | inactive: 0.514% |
| CC(=O)Nc1ccc(C(=O)N/N=C/c2cc(Br)cc(Br)c2O)cc1 | inactive: 0.474% |
| O=C(Nc1ccc(S(=O)(=O)Nc2ccccn2)cc1)c1cccc([N+](=O)[O-])c1 | inactive: -0.171% |
| COc1ccc2c3c([nH]c2c1)[C@H](CO)N(C(=O)Nc1ccc(F)cc1)CC31CCN(S(=O)(=O)c2cccs2)CC1 | inactive: -0.117% [at 42 µM] |
| COc1cc(C)ccc1NC(=O)Cc1csc(NC(=O)Nc2ccccc2OC)n1 | inactive: 0.619% |
| COc1cc2oc(-c3ccc(O)cc3)cc(=O)c2c(O)c1OC | inactive: 0.803% |
